About 540 (0.36%) of roughly 150,000 compounds showed an effect of 50% or more. Some of the results follow.
The compounds below were run on Plasmodium falciparum (assay: Primary screen in NF54 nanoGlo assay, in single point, at 2uM, 72h; a lower Z score goes with more inhibition). Conditions: timepoint 72 hour.
Assay type: functional, Erythrocyte

Compound | % Inhibition [%] | Z score
CC(C)Cc1ncc2c(n1)CN(C(=O)c1n[nH]c3c1COCC3)C2 | -6 | 0.87
COc1cccc([C@@H](C)Nc2cc([C@H]3C[C@H](N)C3)ncn2)c1 | -7 | 1.26
CCN1CCN(C(=O)C(C)N2CCCC2Cn2cc(C)cn2)CC1 (stereo unspecified) | -12 | 0.98
CC1CC(C(=O)O)CN(C(=O)NCc2nc3ccccc3s2)C1 (stereo unspecified) | -15 | 1.26
Cc1ccc(-n2cccn2)cc1S(=O)(=O)N1C[C@H]2CC[C@@H](C1)N(C)C2 | -2 | 0.32
Cc1nc(-c2ccc(C)c(-n3cc(C(=O)Nc4ccc(Br)cc4F)c(C)n3)c2)no1 | 7 | -0.78
CCc1noc(CN2CCC3(CC2)OCCO3)n1 | 1 | -0.19
O=C(NCc1cccc(C(F)(F)F)c1)[C@@]1(CCO)CCN(c2ncccn2)C1 | 0 | 0.04
O=C(Nc1ccccc1-c1ccc2ccccc2n1)c1ccco1 | -8 | 1.31
O=C(CN(C(=O)Nc1ccc(Cl)c(Cl)c1)C1CC1)N1CC(=O)N(c2ccc(Cl)cc2)C1 | -2 | 0.28
Cc1n[nH]c(C)c1NC(=O)CN(C)C1CCCCC1 | -5 | 0.83
CC(C)c1nc(NC(=O)c2c(O)cccc2Cl)n(C)n1 | -10 | 1.34
COc1ccc(Br)c(S(=O)(=O)NCC2(C)CCC2)c1 | 1 | -0.23
CCCCN1CC[C@@H]2N(CCn3cc(Cl)cn3)CCC[C@@]2(CO)C1 | -6 | 1.26
CC(C)[C@@H](NCCC(=O)N1CCN(C)CC1)C(=O)OC(C)(C)C | -12 | 1.33
O=C(COC(=O)CC(c1ccccc1)c1ccccc1)NCc1ccc2c(c1)OCO2 | -14 | 2.24
CC1CN(S(=O)(=O)c2ccc3c(c2)OCCCO3)CC(C)O1 (stereo unspecified) | 1 | -0.21
CC(Nc1ccc2[nH]ncc2c1)C1CC1(C)C (stereo unspecified) | 8 | -1.7
CC(C)c1nnc(N2CCN(C)[C@]3(CCC(=O)N(C)CC3)C2)s1 | 4 | -0.54
Cc1cc(C)c(CNC(=O)c2ccc(-n3cccn3)nc2)c(=O)[nH]1 | -1 | 0.08
Cc1n[nH]c(C2CC2)c1C(=O)N1CCN(C(=O)c2ccco2)CC1 | -13 | 1.15
FC(F)(F)CCN(CCn1cncn1)C1CCCC1 | -6 | 0.59
CC(O)CC1CCCN1C(=O)Cc1nc(C(F)(F)F)cs1 (stereo unspecified) | -7 | 0.79

Reference: ChEMBL document CHEMBL4888484, “Replenishing the malaria drug discovery pipeline: Screening and hit evaluation of the MMV Hit Generation Library 1 (HGL1) against asexual blood stage Plasmodium falciparum ,using a nano luciferase reporter read-out” (2022)
